Measured values taken from the RNAGym collection of RNA variant scans (doi:10.7554/elife.90254).
Read counts are not given, so values of variants with three or more changes are uncertain.

B1: LINE1-full (parent)
chain: UACGUAGGUGGUUUUCCCCUGAUAGUGCUAAGGGGGCCUGGAAGUUUGGACUGGGCAGAGCUCAACACAGCGUGGCAAAGUGGCUGUGGCUAGACUGCCUCUCUGGAUUCCUCGUCACUCAGCAGGGCAUCUCUGAGAGAAAUGCC

Variants of: B1
Experiment: self-cleavage, relative activity (ratio to wild type); higher = more cleavage; in vitro, sequencing; the parent is a self-cleaving ribozyme

Variant | self-cleavage
UACGUAGGUGGUUUUCCCCUGAUAGUGCUAAGGGGGCCUGGAAGUUUGGACUGGGCAGAGCUCAACACAGCGUGGCAAAGUGGCUGCGGCUAGACUGCCUCUCUGGAGUCCUCGUCACUCAGCAGGGCAUCUCUGAGGGAAAUGCU | 0
UACGUAGGUGGUUUUCCCCUGAUAGUGCUAAGGGAGCCUGGAAGUUUGGACAGGGCAGAGCUCAACACAGCGUGGCUAAGUGGCUGUGGCUAGACUGCCUCUCUGGAUUCCACGUCACUCAGCAGGGCUUCUCUGAGAGAAAUGCC | 1.14
UACGUAGGUGGUUCCCCCCUGAUAGUGCUAAGGGGGCCCGGAAGUUUGGACUGGGCAGAGCUCAACACAGCGUGGCAAAGUGGCUGUGGCUAGACUGCCACUCUGGAUUCCUCGUCACUCAGCAGGGCAUCUCUGAGAGAAGUGCC | 0.68
UACGUAGGUGGUUUCCCCCUGAUCGUGCUAAGGGGGCCUGGAAGUUCGGACUGGGCAGAGCUCAACACAGCGUGGCAAAGUGGCGGUGGCUAGACUGCCUCUCUGGAUUCCUCGUCACUCAGCAGGGCAUCUCUGAGAGAAAUGCC | 0.84
UACGUAGGUGGUUUUCCCCUGAUAGUGCUAAGGGGGGCUGGAAGUUUGGACUGGGCAGAGCUUAACACAGCGUGGCAAAGAGGCUGUGGCUAGACUGCCUCUCUGGAUUCCUCGUCACUCAGCAGGGCAUCUCUGAGAGAAAUGCC | 0.44
UACGUAGGUGGUUUUCCCCUGAUAGUGCUAAGGGGGCCUGGAAGUUUGGACCGGGCAGAGCUAAACACAGCAUGGCAAAGUGGCUGUGGCUAGACUGCCUCUCUGGAUUCCUCGUCACUCAGCAGGGCAUCUCUGAGAGAAAUGCC | 0.01
UACGUAGGUGGUUUCCCCCUGAUAGUGCUAAGGGGGCCUGGAAGUUUGGACUGGGCAGAGCUCAACACAGCGUGACAAAGUGGCUGUGUCUAGACUGCCUCUCUGGAUUCCUCGCCACUCAGCUGGGCAUCUCUGAGAGAAAUGCC | 0.03
UGCGUAGGUGGUUUUCCCCUGAUAGUGCUAAGGGGGCCUGGAAGUUUGGACUGGGCAGAGCUCAACGCAGCGUGGCAAAGUGGCUGUGGCUAGACUGCCUCUCUGGAUUCCUCGUCACUCAGCAGGGCAUCUCUGAGAGAAUUGCC | 0.84
UACGUAGGUGGUUUUCCCCUGAUGGUACUAAGGGGGCCUGGAAGUUUGGACUGGGCAGAGCUCAACACAGCGUGGCAAAGUGGCUGUGGCUAGACUGCCUCUCUGGAUUCCCCGUCACUCAGCAGGGCAUCUCUGAGAGAAAUGCC | 0.7
UACGUAGGUGGUUUUCCCCCGAUAGAGCUAAGGGGGCCUGGAAGUUUGGACUGGGCAGAGCUCAACACAGCGUGGCAAAGUGGCUGUGGCUAGACUGCCUCUCUGGAUUCCUCGUCACUCAGCAGGGCAUCUCUGAGAGAGAUGCC | 1.48
UACGUAGGUGGUUUUCCCCUGAUAGUGCUAAGGGGGCCUGGAGGCUUGGACUGGGCAGAGCUCAAUACAGCGUGGCAAAGUGGCUGUGGCUAGACUGCCUCUCUGGAUUCCCCGUCACUCAGCAGGGCAUCUCUGAGAGAGAUGCC | 0.04
UACGUAGGUGGUUUUCCCCUGAUAGUGCUAAGGGGGCCUGGAAGUUUGGACUGGGCAGAGCUCUACACAGCGUGGCGACGUGGCUGUGGCUAGACUGCCUCUCUGGAUUCCUCGUCACUCAGCAGGGCAUCUCAGAGAGAAAUGCC | 0.68
UACGUAGGUGGUCUUCCCCUGAUGGUGCUAAGGGGGCCUGGAAGUUUGGACUGGGCAGAGCUCAACACAGCGUGGCAAAGUGGCUGUGGCUAGACUGCCUCUCUGGGUUCCUCGUCACUCAGCAGGGCAUCUCUGAGAGAGAUGCC | 0.94
UACGUAGGUGGUUUUCCCCUGAUAGUGCUAAGGGGGCCUGGAAGUUUGGACUGGGCAGAGCCCAACACGGCGUGGCAAAGAGGCUGUGGCUAGACUGCCUCUCUGGAUUCCUCGUCACACAGCAGGGCAUCUCUGAGAGAAAUGCC | 0.12
UACGUAGGUGGUUUUCCCCUGAUAGUGCUAAGGGGGCCUGGAAGUUUGGACUGGGCAGAGCUCAACACAGCGUGGCAAAGUGGCUGCGGCUAGACCGCCUCUCUGGAUUCCUCGUCACUCUGCAGGGCAUCUCUGAGAGAAAUGCC | 0.07
UACGUAGGUGGUUUUCCCCUGAUAGUGCUAAGGGGGCCUGGAAGUUUGGACUGGGCAGAGCCCAACACAGCAUGGCAAAGUGGCUGUGGCUAGACUGCUUCUCUGGAUUCCUCGUCACUCAGCAGGGUGUCUCUGAGAGAAAUGCC | 0.01
UACGUAGGUGGUUUUCCCCUGAUAGUGCUAAGGGGGCCCGGAAGCUUGGACUGGGCGGAGCUCAACACAGCGUGGCAAAGUGGCAGUGGCUAGACUGCCUCUCUGGAUUCCUCGUCACCCAGCAGGGCAUCUCUGAGAGAAAUGCC | 0
CACGUAGGUGGUUUUCCCCUGAUAGUGCUAAGGGGGCCUGGUAGUUUGGACUGGGCAGAGCUCAACACAGCGUGGCAAAGUGGCUGUGGCUAGACUGCCUCUCUGGAUUCCUCGUCACUCUGCAGGGCAUCUCUGAGAGAAAUGCC | 0.32
CACGUAGGUAGUUUUCCCCUGAUAGUGCUAAGGGGGCCCGGAAGUUUGGACUGGGCAGAGCUCAACACAGCGUGGCAAAGUGGCUGUGGCUAGACUGCCACUCUGGAUUCCCCGUCACUCAGCAGGGCAUCUCUGAGUGAAAUGCC | 0.17
UACGUAGGUGGUUCUCCCCUGAUAGUGCCAAGGGGGCCUGGAAGUUUGGGCUGGGCAGAGCUCAACACAGCGUGGCAAAGUGGCUGUGGCUAGACUGCCUCUCUGGAUUCCUCGUCACUCAGCAGGGCACCUCUGAGAGAAAUGCC | 0
